# Measurements published in the supplement of paper PMC3334620.
# In all, about 33,000 sequences were measured (“E-score (-0.5 to 0.5)”: median about -0.012, highest 2% from about 0.29 on). This is one part of the list.
# Target: T1, Ybr033w (UniProt P38073)
# T1 sequence: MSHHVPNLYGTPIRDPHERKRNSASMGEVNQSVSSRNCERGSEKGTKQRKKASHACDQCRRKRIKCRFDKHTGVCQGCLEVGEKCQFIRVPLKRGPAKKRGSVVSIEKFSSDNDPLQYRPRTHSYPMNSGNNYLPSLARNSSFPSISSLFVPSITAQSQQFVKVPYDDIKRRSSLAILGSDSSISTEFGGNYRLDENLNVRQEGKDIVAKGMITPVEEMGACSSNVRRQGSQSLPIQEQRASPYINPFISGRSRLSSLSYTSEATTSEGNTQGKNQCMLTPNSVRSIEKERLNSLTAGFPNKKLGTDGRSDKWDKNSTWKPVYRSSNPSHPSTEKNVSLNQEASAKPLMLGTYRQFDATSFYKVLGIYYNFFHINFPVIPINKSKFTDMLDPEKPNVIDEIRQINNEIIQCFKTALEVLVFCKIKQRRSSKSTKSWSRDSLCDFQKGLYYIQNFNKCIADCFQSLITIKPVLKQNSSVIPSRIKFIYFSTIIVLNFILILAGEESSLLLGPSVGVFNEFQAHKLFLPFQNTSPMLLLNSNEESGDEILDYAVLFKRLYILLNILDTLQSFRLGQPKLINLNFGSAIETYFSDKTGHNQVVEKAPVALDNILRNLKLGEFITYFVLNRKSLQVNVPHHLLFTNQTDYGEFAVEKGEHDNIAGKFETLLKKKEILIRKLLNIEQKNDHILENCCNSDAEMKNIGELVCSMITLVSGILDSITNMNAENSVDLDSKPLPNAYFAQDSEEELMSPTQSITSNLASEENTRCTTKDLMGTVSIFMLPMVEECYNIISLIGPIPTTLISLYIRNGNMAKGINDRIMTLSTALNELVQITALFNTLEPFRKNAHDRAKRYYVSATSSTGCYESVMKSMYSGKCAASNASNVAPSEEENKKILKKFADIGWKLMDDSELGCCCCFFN
# Assay: PBM E-score (8-mer binding enrichment) (E-score (-0.5 to 0.5)); higher = stronger / more preferred TF binding; most listed sequences are background and not binding sites
# Conditions: protein concentration: 200 nM; construct: GST-full length
# Summary of the method: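 GST-tagged yeast TFs (full-length or DNA-binding domain) were made by PURExpress in vitro transcription/translation and applied at about 100-200 nM to universal all-10-mer Agilent arrays. The arrays were made double-stranded by primer extension, on fresh or once-stripped slides. Bound protein was detected with fluorescent anti-GST, and scans were normalised with masliner. Each ungapped eight-base word, pooled with its reverse complement, received an E-score (modified Wilcoxon-Mann-Whitney statistic) from the Universal PBM Analysis Suite.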
row,Sequence,PBM E-score
1,AACCGTAC,-0.105
2,CCCCGTTC,-0.163
3,GATAAGCC,-0.164
4,ACCCACCG,-0.0329
5,CCGCTCCA,-0.27
6,AGGCGTGA,-0.254
7,CAAGGCAG,-0.105
8,CCTCAAGG,-0.109
9,TGGCGTAA,-0.0667
10,AAAGAGGC,-0.0851
11,CGATCCAC,-0.0709
12,ATGCAGGC,-0.293
13,ATTCCACC,0.208
14,AAGGGAAT,0.0801
15,ACTGACAC,-0.0621
16,GAGCCGAA,-0.133
17,ATCGAAGA,0.131
18,CTCCTCTC,-0.304
19,GCCCCCAC,-0.415
20,CGTAATAA,0.154
21,TTCCACAA,0.314
22,TACAGCCA,-0.0291
23,CGTATCGC,0.0225
24,CGCACTAA,0.0977
25,ACGAGGAC,-0.181

row,Sequence,PBM E-score
1,CGGATCAC,-0.0588
2,GCCTTACA,-0.15
3,CCACCGTC,-0.21
4,TATGCTAA,0.11
5,AGTAAGCG,0.0971
6,AAGTTCTC,0.0618
7,TATACGGA,0.152
8,CCCTTTAA,-0.0358
9,AGACAGCC,-0.192
10,CTGAACGA,-0.104
11,CACGCCTG,-0.229
12,AAGTACCG,0.0607
13,CGCATTGC,-0.0541
14,ATGCCGTA,-0.129
15,CACACACC,0.0464
16,CTCCGGCC,-0.259
17,CTCTCTCA,-0.0712
18,CATCTCAC,0.0316
19,GTCACATA,0.107
20,AACCGATC,-0.164
21,AGCACCAA,0.0937
22,ACATCGTG,-0.0132
23,AAGGATTG,0.126
24,AAGTTTGT,0.269
25,CCATCCGC,-0.137

row,Sequence,PBM E-score
1,TCGATCGA,-0.0729
2,ACATTTAG,-0.0589
3,GCTCGCGA,0.0005
4,GATAGGTA,0.152
5,AATCCTGG,0.0204
6,CGCCGTGC,-0.111
7,CATGCCAG,-0.113
8,GAAGGTGC,-0.224
9,CGCTTAGA,-0.0786
10,GTTCTCTA,-0.0219
11,CATCGCCA,-0.208
12,GATATCTA,0.0989
13,AAACCCTT,-0.0128
14,AACTGGCC,0.0651
15,CCAAGATA,0.0894
16,AGCGTTAT,-0.0172
17,ACGATGTC,-0.154
18,CTTCTCGC,-0.0908
19,CGGCTGAC,-0.078
20,AGCTACAC,0.0817
21,AGCGAACG,-0.283
22,GATACAGA,-0.0116
23,ACGAATCG,0.073
24,CGGTTGCA,-0.122
25,CGGAGCCG,-0.211

row,Sequence,PBM E-score
1,GATACCTA,0.185
2,ATCATGAG,0.119
3,CGTTTCTA,0.188
4,ATTTCGCC,0.0897
5,CCCACGAA,-0.114
6,CTTAGGAC,-0.229
7,AGTGTTTG,0.118
8,TACTAGCA,-0.0113
9,TCCAGTAA,0.0303
10,CAGAAGGG,-0.323
11,CCGCCAGA,-0.0108
12,ACGCCACG,-0.323
13,GACACACA,0.0158
14,ATCCGCCC,-0.0758
15,CAGCAGCC,-0.152
16,CCCATGCC,-0.354
17,CACGCAAC,0.0617
18,AACACCTA,0.0452
19,ACGGTCAC,-0.322
20,GCTACCCC,-0.323
21,CGTACCAC,0.101
22,ATATATTA,0.306
23,GTGAACAC,-0.15
24,GGCGCGAA,0.0314
25,AGTGACCA,0.0221

row,Sequence,PBM E-score
1,AGTAAGTG,0.00718
2,TCTTAGCA,-0.0923
3,ACACGCAC,-0.0468
4,ACACTGTG,0.0821
5,TCCGAACA,0.119
6,AAAGGGGA,-0.276
7,CGCGCGAC,-0.017
8,TGTTAGAA,0.147
9,ACACCTAT,0.154
10,GTATAAAA,0.289
11,GCCTCTCA,-0.261
12,CATCCCGA,-0.0143
13,GGCTGGGA,-0.245
14,GGTTTCAC,0.0871
15,GTAACTTA,0.15
16,TCGTTAGA,0.0721
17,ACGAGTGA,-0.12
18,ACAACATG,0.124
19,ATGCGGAG,-0.179
20,AGTTCTAT,0.0629
21,CTGTTGGC,-0.0935
22,CCGTGAGG,-0.201
23,CGATACTC,-0.0379
24,CCCAGGCA,-0.175
25,AACGGCCG,0.0909

row,Sequence,PBM E-score
1,AACCTCTC,-0.126
2,AGACGTAC,-0.127
3,ATAGTACA,0.214
4,CGGTGTAG,-0.227
5,ACTTGCGC,-0.137
6,CCATTCTC,-0.127
7,AGCTGCGC,-0.00242
8,AGGGAAGG,-0.299
9,TAAATCTA,0.238
10,ACCACTTC,0.00812
11,AAGCATCA,-0.068
12,AACGCAAT,0.202
13,TCTCAAGA,-0.0348
14,AATAGAGC,0.206
15,GGCCCGGA,-0.247
16,AAGAGTAC,0.0539
17,CCGCGCCC,-0.275
18,GTCTTGGA,0.0685
19,CGTATGGC,-0.0236
20,GCTCCCGA,-0.27
21,CGAGGTCA,-0.0726
22,CAAAATCA,0.194
23,ACGCAAAC,0.0104
24,ACCCCAGC,0.0611
25,ATTACGAA,0.197

row,Sequence,PBM E-score
1,CCCGACAG,-0.0978
2,CCCATCAG,-0.301
3,TATTTTAA,0.26
4,CGGCATAG,-0.0538
5,CCCGTTAG,-0.31
6,AGGCCGGC,-0.304
7,ATATGAAT,0.182
8,ATGAACTA,0.303
9,AGGTGCTA,0.0479
10,GATGGTGC,-0.388
11,ATGTCTAG,0.105
12,CCTCGGTA,-0.241
13,CCCAGCCA,-0.0683
14,ATACGTGA,0.0823
15,CGCGTTAG,0.00864
16,ACCTATGC,-0.0454
17,ACGTCTTC,-0.214
18,AAGACCGC,-0.0727
19,TCCGGAGA,0.0833
20,ACCAACTA,0.228
21,CCACCTAG,-0.253
22,CATCATCG,-0.00089
